Measurements reported in PubChem BioAssay AID1508624 (National Center for Advancing Translational Sciences (NCATS), 2021).
Out of some 48,000 compounds screened, about 120 (0.25%) were called active. About 4% were inconclusive and are not listed. The call rests on the fitted dose curve; in most records, active means well fitted activation curve with a large enough effect; inconclusive means small, poorly fitted or top-dose-only effect, or another doubt; inactive means no such curve, though single readings can be large or run the other way. Some of the results follow.

assay: Primary qHTS for Identification of Small Molecule Activators of Huntingtin-Antisense Promoter Activity; conditions: HEK293 HTT-AS promoter firefly luciferase reporter, 24 h; series mostly up to 57.5 µM; activity change, positive = activation: at the top concentration; further: nearly all actives have a fitted effect of over 55% in size
In short: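 HEK293 Fluc reporter, 2,500 cells/well, 24 h pre-culture; cpds up to 57.5 uM final, 24 h 37 degrees C; Dual-Glo, 10 min RT; normalized vehicle = 0%, zero RLU = -100%.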

Activity change, positive = activation, inactive:
CC1=C(C(=O)N2CCN(c3ccc(Cl)cc3)CC2)C2(CCC(C)CC2)OC1=O (stereo not drawn) -21.3%
O=C(Cn1c(=O)n(Cc2ccccc2)c(=O)c2sc3ccccc3c21)Nc1ccc(F)cc1 -19.5%
CCCC(=O)Nc1ccc(OCC(O)CNC(C)C)c(C(C)=O)c1 (stereo not drawn) -8.75%
COc1ccc(-c2nc3sc(CCNC(=O)C(=O)Nc4ccc(C)c(C)c4)c(C)n3n2)cc1 -12.2%
CCOC(=O)c1cc(-c2ccccc2)n(CC(=O)NCc2ccccc2)c1C -25.8%
Cc1ccc(C)c(Cn2c(=O)n(CCCC(=O)NCCc3ccc(Cl)cc3)c(=O)c3ccccc32)c1 -17.2%
O=C(COc1ccc(Cl)cc1)NCC(c1cccs1)S(=O)(=O)c1ccc(F)cc1 (stereo not drawn) -29.4%
CCC(C)NC(=O)Cn1c(=O)n(-c2ccc(OC)c(OC)c2)c(=O)c2ccccc21 (stereo not drawn) -11.7%
Cc1ccc2c(c1)Cc1c(nc(-c3ccc(F)cc3)nc1SCC(=O)N1CCCCC1)O2 9.04%
Cc1ccc(Nc2c(-c3cccnc3)nc3ccc(Cl)cn23)cc1 6.29%
CC[C@H](Nc1ncnc2nc[nH]c12)c1nc2cccc(F)c2c(=O)n1-c1ccccc1 -11.9%
CCOC(=O)C1CCN(C(=O)c2c(C)nn(-c3ccc(F)cc3)c2-n2cccc2)CC1 -19.3%
COc1ccc2cc(CCNS(=O)(=O)c3ccc(C)cc3)c(=O)[nH]c2c1 -10.1%
COc1ccc(C(=O)Nc2nnc(S(=O)(=O)N(C)c3ccc(C)cc3)s2)cc1 -6.7%
COc1ccc(C(=O)Nc2nnc(S(=O)(=O)N3CCN(c4ccc(F)cc4)CC3)s2)cc1 -4.61%
CCc1ccccc1Nc1ncnc2c1cnn2-c1ccc(C)cc1C -2.26%
CC(C)COc1ccc(C(=O)Nc2nnc(S(=O)(=O)N(C)Cc3ccco3)s2)cc1 -6.08%
COc1cccc(CNC(=O)c2cc3c(=O)n(Cc4cccnc4)ccc3nc2C)c1 -15.9%
CCc1cccc(NC(c2ccccc2)c2nnc(-c3ccccc3F)o2)c1 (stereo not drawn) 9.61%
CCOC(=O)c1c(C)[nH]c(C)c1S(=O)(=O)N1CCCC(C(=O)NCc2ccccc2Cl)C1 (stereo not drawn) -16.6%
CC(=O)Nc1ccc(OCC(O)CNC(C)C)cc1 (stereo not drawn) -0.738%
COc1ccccc1CNC(=O)CN(c1ccccc1OC)S(C)(=O)=O -19.9%
CCc1ccc(C2C(C(=O)Nc3ccccc3OC)=C(C)Nc3nc(SCc4ccccc4)nn32)cc1 (stereo not drawn) -5.01%
CCOc1ccc(CNC(=O)CN2N=C(c3ccccc3)CCC2=O)cc1OC -6.45%
Cc1ccc(-n2ncc(C(=O)NCCN3CCN(C)CC3)c2C2CCN(C(=O)OC(C)(C)C)CC2)cc1 -12.9%
Cc1nc(C)c(-c2ccc(SCC(=O)Nc3cccc(C)c3C)nn2)s1 -13.6%
Cc1ccc(CNC(=O)CSc2nc3ccsc3c(=O)n2-c2ccc(Br)cc2)cc1 -14.3%
Cc1ccccc1C(=O)NNc1ncnc2c1cnn2-c1cccc(Cl)c1 -13.2%
Cc1ccc(Cn2c(CNC(=O)c3ccc(Cl)c([N+](=O)[O-])c3)nc3cccnc32)cc1 -27.4%
CCCc1ccc(NC(=O)C2CCCN(c3cnccn3)C2)cc1 (stereo not drawn) 14.6%
CCc1ccc(NC(=O)C2CCN(S(=O)(=O)c3cccc(-c4noc(C)n4)c3)CC2)cc1 -28.6%
CCOc1ccc(Nc2nc(C)c(NC(=O)c3cccc(F)c3)c(Nc3ccc(OCC)cc3)n2)cc1 -28.4%
CCC1Oc2ccc(C)cc2N(CC(=O)N2CCN(c3ccccc3OC)CC2)C1=O (stereo not drawn) 1.89%
Cc1noc(C)c1S(=O)(=O)N(CC(=O)NCCc1ccc(Cl)cc1)c1ccc(C(C)C)cc1 -3.3%
Cc1cccc(OCC(=O)Nc2ccc3c(c2)nc(CN2CCCCC2)n3C)c1 -37.6%
CCCc1nnc(NC(=O)Cc2coc3c(C)c(C)ccc23)s1 11.9%
Cc1ccc(Cl)cc1N1CCN(S(=O)(=O)c2ccc3c(c2)C(C(C)C)C(=O)N3)CC1 (stereo not drawn) -26.7%
O=C(COCc1cc(-c2cccs2)on1)NCc1ccc(F)cc1 5.51%
O=C(Nc1ccc(Cl)cc1)c1ccc(-n2cnnc2)cc1 -5.08%
CCc1cc(=O)[nH]c(SCc2nc(-c3cccc(Cl)c3)no2)n1 -21.5%
Cc1ccc(-n2ncc3c(N4CCN(Cc5ccccc5)CC4)ncnc32)cc1Cl 0%
CC(C)c1ccc(NC(=O)C2CCCN2S(=O)(=O)c2ccc3nc(-c4ccccc4)[nH]c3c2)cc1 (stereo not drawn) -22.5%
CCOCCCn1c(SCC(=O)Nc2ccc(CC)cc2)nc2ccccc2c1=O -21.7%
COc1ccc(C(=O)N(Cc2sccc2C)C2CCS(=O)(=O)C2)cc1 (stereo not drawn) -8.75%
COc1cc(NC(=O)Cn2ccc3ccccc3c2=O)cc(OC)c1OC -16.1%
COC(=O)c1ccc([C@H]2Nc3ccc(S(=O)(=O)Nc4cccc(C)c4)cc3[C@H]3C=CC[C@H]32)cc1 -15.8%
COCCNC(=O)CCCn1c(SCc2ccccc2Cl)nc2c(sc3ccccc32)c1=O 6.61%
CCCCOc1ccc(C(=O)N(Cc2ccco2)Cc2ccco2)cc1 -16.6%
COc1ccccc1C1CC(=O)N(c2cccc(C(F)(F)F)c2)C2=C1C(=O)OC2 (stereo not drawn) 0%
COC(=O)c1c(-c2ccccc2)c(-c2ccccc2)nn(C)c1=O -22.2%
Cc1ccc(/C=N/n2c(-c3ccccc3)csc2=S)cc1 -11.9%
CCC(=O)Nc1nnc2n1CCS2 -9.34%
Cc1cccc(N(CC(N)=O)C2SC(=O)N(Cc3cccc(C(=O)O)c3)C2=O)c1 (stereo not drawn) -10.2% [at 11.5 µM, percent change from vehicle, -100% = no light]
Cc1cc(Br)cc2c(C(=O)OCC(=O)c3ccccc3)cc(-c3ccccc3)nc12 6.08%
Cc1c(-c2nnc(SCC(=O)Nc3ccc(Cl)cc3)o2)nnn1-c1ccc(F)cc1 2.87%
COc1ccccc1N1CCN(C(=O)c2cnc(N3CCOCC3)c3ccccc23)CC1 -36.4%
CCN1CCSc2ccc(C(=O)NCc3ccccc3Br)cc21 -11.7%
O=c1[nH]c(SCc2cccc(Cl)c2)nc2c1CCC2 3.3%
Cc1cc(CN2CCN(c3ccc(F)cc3)CC2)cs1 -10.2%
COC(=O)Cc1c(C)nc2nc(-c3ccc(C)cc3)[nH]n2c1=O -21.4%
CCOc1cccc2sc(NC(=O)CS(=O)(=O)c3ccc(C)cc3)nc12 -10.7%
CCN(Cc1ccccc1)S(=O)(=O)c1ccc(F)c(C(=O)Nc2cc(C(F)(F)F)ccc2Cl)c1 -16%
COc1ccc(-n2c(=O)c3sc4ccccc4c3n(CC(=O)NC3CCCCC3)c2=O)cc1 -4.38%
CC(C)c1ccc(N2C(=O)N(Cc3ccccc3Cl)c3ccccc3S2(=O)=O)cc1 -24.8%
CCS(=O)(=O)c1c(Nc2cc(C)ccc2C)sc(C(=O)c2ccccc2)c1N -38.6%
COc1cccc(-c2nc(S(=O)(=O)c3ccccc3)c(N3CCC(C)CC3)o2)c1 -9.6%
Cc1ccc(C(=O)n2nc(C)c(S(=O)(=O)N3CCOCC3)c2C)cc1C -18.8%
CC1=C(C(=O)Nc2ccccc2)C(c2cc(Br)ccc2F)n2ncc(C(=O)Nc3ccccc3)c2N1 (stereo not drawn) -24.6%
O=C(Nc1ccccc1)OCC(CN1CCCCC1)OC(=O)Nc1ccccc1 (stereo not drawn) -33.6%
Cc1ccc(NC(=O)c2nnn(CC(=O)Nc3ccc(C)c(Cl)c3)c2N)c(C)c1 4.23%
O=c1c2ccccc2nc(-c2ccc(Cl)cc2)n1CCCOc1ccccc1F -1.17%
COc1ccc(CCC(=O)c2c(O)cc(O[C@@H]3O[C@H](CO)[C@@H](O)[C@H](O)[C@@H]3O[C@@H]3O[C@@H](C)[C@H](O)[C@@H](O)[C@@H]3O)cc2O)cc1O -49.9%
COc1ccc(Cn2c(CO)cnc2SCc2cccc(C)c2)cc1 11.9%
COc1ccccc1N1CCN(C(=O)CCS(=O)(=O)c2cc(Br)cc3c2N(C(C)=O)CC3)CC1 -25.4%
O=C(COc1ccc(Cl)cc1)NCC(c1ccco1)S(=O)(=O)c1ccc(Cl)cc1 (stereo not drawn) -16.4%
COc1ccc(CNC(=O)c2cc3c(=O)n(C)c4ccccc4c3n2C)c(OC)c1 -6.7%
Cc1cc(C)c2oc(-c3ccc(C)c(NC(=O)/C=C/c4ccco4)c3)nc2c1 0.941%
Cc1nc(N2CCCC2)ncc1C(=O)N1CCN(c2ccccc2F)CC1 -1.4%
CC1(C)C(=O)N(CCN2CCC(C(=O)c3ccc(F)cc3)CC2)c2ccccc21 -32.2%
CCOc1ccc(CCNC(=O)c2ccc(-c3nc(COc4ccc(C)cc4)c(C)o3)cc2)cc1 -17.3%
COc1ccc(NC(=O)CSc2nc(-c3ccc(F)cc3)c3cccc(C)c3n2)cc1 -9.85%
COc1ccc(CCNC(=O)c2ccc(Cn3c(=O)c4ccccc4n(Cc4ccc(C)cc4)c3=O)cc2)cc1OC -6.02%
Cc1ccc2nc(CN3CCN(C(=O)Nc4ccc(C)c(F)c4)CC3)oc2c1 15.1%
COCCCn1c(SCC(=O)Nc2ccccc2OC)nc2c(sc3ccccc32)c1=O -2.06%
CCC1=Nc2cc(C(=O)NCc3ccc(C)cc3)ccc2Sc2ccc(C)cc21 -34.5%
CCCCN(C)CCCNC(=O)c1cc(-c2cccnc2)nc2ccccc12 -2.65%
COc1ccc(-c2oc3ncn4nc(COc5ccccc5C)nc4c3c2-c2ccc(OC)cc2)cc1 6.69% [at 11.5 µM, percent change from vehicle, -100% = no light]
COC(=O)c1ccc(OC)c(Cn2c(=O)n(-c3cccc(Cl)c3)c(=O)c3c4c(sc32)CN(C(C)=O)CC4)c1 -4.19%
CCOC(=O)C1CCCN(C(=O)Cn2ncn3c(cc4sc(CC)cc43)c2=O)C1 (stereo not drawn) -16.1%
O=C(Nc1ccc(F)cc1)[C@@H](c1ccccc1)N1Cc2ccccc2C1=O -14.1%
COc1cc(OC)c(NC(=O)Cc2ccc(-n3c(C)nc4cccnc43)cc2)cc1Cl -33.9%
COc1ccc(NC(=O)Cn2c(=O)n(-c3ccc(OC)cc3)c(=O)c3ccc(C(=O)NCc4ccc(C)cc4)cc32)cc1 -41.8%
COc1cc(C(=O)NCCc2csc3nc(-c4ccccc4C)nn23)cc(OC)c1OC -25.4%
